Results reported in PubChem BioAssay AID504339 (National Center for Advancing Translational Sciences (NCATS), 2011).
Values joined by “and” are separate entries in the source; they are usually repeats but may differ in a detail not shown here. Equal entries are not always repeated. Screen size: about 390,000 compounds; about 17,000 (4.4%) were called active. The shares of active, inactive and inconclusive entries below differ from those in the screen. Calls come from the whole dose curve; as a rule, active = well fitted inhibition curve with a large enough effect; inconclusive = small, poorly fitted or top-dose-only effect; inactive = no such curve, though single readings can be large or run the other way. Potencies of inconclusive entries are doubtful fits and often do not repeat.

Biological target: Lysine-specific demethylase 4A (Homo sapiens) (UniProt O75164)
Test: qHTS Assay for Inhibitors of JMJD2A-Tudor Domain; note: nearly all actives have a fitted effect of over 50% in size
Details: AlphaScreen JMJD2A-Tudor / H3K4me3 peptide binding; series mostly up to 114 µM
Potency is the fitted concentration of half-maximal effect; tags give direction and shape of the fitted curve.

UniProt O75164, sequence (O75164 whole entry, looked up, the tested form may be a part): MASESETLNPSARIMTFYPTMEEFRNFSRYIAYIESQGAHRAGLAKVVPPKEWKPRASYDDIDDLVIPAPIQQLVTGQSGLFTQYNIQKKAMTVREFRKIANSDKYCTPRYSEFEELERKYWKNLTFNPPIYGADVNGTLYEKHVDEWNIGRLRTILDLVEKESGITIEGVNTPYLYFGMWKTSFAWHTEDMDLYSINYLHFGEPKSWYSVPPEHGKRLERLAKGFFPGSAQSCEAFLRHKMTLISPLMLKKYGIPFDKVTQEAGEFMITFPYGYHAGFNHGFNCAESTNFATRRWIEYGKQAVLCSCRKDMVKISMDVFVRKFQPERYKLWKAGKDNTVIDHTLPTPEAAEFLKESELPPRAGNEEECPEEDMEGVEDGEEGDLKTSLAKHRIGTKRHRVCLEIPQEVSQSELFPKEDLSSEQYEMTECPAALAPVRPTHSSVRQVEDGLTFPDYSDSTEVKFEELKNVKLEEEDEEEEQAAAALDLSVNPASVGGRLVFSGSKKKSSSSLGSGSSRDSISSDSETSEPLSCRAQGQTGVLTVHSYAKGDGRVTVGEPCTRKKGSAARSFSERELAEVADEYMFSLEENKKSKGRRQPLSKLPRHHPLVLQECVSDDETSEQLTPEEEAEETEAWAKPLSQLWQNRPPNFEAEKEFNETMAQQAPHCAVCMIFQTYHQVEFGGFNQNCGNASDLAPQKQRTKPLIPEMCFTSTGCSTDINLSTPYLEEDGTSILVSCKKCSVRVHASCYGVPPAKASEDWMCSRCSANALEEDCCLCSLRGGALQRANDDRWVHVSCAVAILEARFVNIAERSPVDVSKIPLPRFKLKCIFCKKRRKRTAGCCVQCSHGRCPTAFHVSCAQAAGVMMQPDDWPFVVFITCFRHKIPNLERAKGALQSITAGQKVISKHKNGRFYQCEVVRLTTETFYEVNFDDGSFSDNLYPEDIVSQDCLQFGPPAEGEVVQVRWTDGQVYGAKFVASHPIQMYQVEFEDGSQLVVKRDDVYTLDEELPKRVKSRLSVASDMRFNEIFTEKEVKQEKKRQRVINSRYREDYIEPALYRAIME

SMILES | Potency
CCC(CC)c1nnc(NC(=O)CC(C)c2ccccc2)s1 (stereo not given) | inactive
CC(C)c1ccc(NC(=S)Nc2cccc3ccccc23)cc1 | inconclusive: 50.1 µM [inhibitor, partial curve]
O=C(c1ccc(N2CCOCC2)c([N+](=O)[O-])c1)N1CCN(c2ccccc2F)CC1 | inconclusive: 25.1 µM [inhibitor, full curve]
O=C(/C=C/NNC(=O)c1ccccc1)c1ccccc1 | inconclusive: 79.4 µM [inhibitor, single point]
O=C(Cc1ccc(Cl)cc1)Nc1cccc(S(=O)(=O)Nc2ccccc2F)c1 | inactive
Oc1ccc(/C=C/c2nc(-c3ccccc3O)n(-c3ccccc3)n2)cc1 | inconclusive: 28.2 µM [inhibitor, full curve]
COC(=O)c1cccc(Nc2ncnc3ccc(C)cc23)c1 | inconclusive: 89.1 µM [inhibitor, single point]
O=C(CSc1oc(-c2cccs2)nc1S(=O)(=O)c1ccccc1)Nc1ccc(F)cc1 | inactive
CCOC(=O)c1[nH]c2ccc(F)cc2c1NC(=O)C(C)N1CCc2cc(OC)c(OC)cc2C1 (stereo not given) | inconclusive: 56.2 µM [inhibitor, partial curve]
O=C(Cc1ccccc1)Nc1cccc(N2CCCC2)c1 | inconclusive: 56.2 µM [inhibitor, partial curve]
C/C(N)=C(/C#N)C(=O)COC(=O)c1cc(-c2cccc(Br)c2)nc2ccccc12 | inconclusive: 3.55 µM [inhibitor, single point]
COc1c(Br)cc(C(N)=O)cc1OCc1ccccc1 | inactive
O=[N+]([O-])c1cccc(S(=O)(=O)N2CCN(c3nc(-c4cccs4)nc4ccccc34)CC2)c1 | inactive
COC(=O)Cc1c(C)c2ccc3c(c2oc1=O)CN(Cc1ccc(C)cc1)CO3 | inconclusive: 100 µM [inhibitor, single point]
COC(=O)/C=C1/SC(=NC(=O)c2ccc(Cl)cc2)NC1=O | inconclusive: 20 µM [inhibitor, full curve]
C=CCn1c(-c2ccc(S(=O)(=O)N3CCOCC3)cc2)csc1=Nc1ccccc1 | inconclusive: 39.8 µM [inhibitor, partial curve]
O=C(c1cc(Cl)ccc1F)N1CCCC(Nc2ccc3c(c2)OCCO3)C1 (stereo not given) | inconclusive: 56.2 µM [inhibitor, partial curve]
C/C(=N\NC(=S)Nc1cccc(C)c1)c1ccco1 | inconclusive: 50.1 µM [inhibitor, partial curve]
COc1cccc(CCC(=O)Nc2cccc(S(=O)(=O)N3CCCC3)c2)c1OC | inactive
Cc1cc(S(=O)(=O)Nc2ccc(N(C)C)cc2)c(C)s1 | active: 50.1 µM
CCOc1ccc(NC(=O)CCS(=O)(=O)c2cccc3nsnc23)cc1 | inactive
CC(C)c1cn(C2OC(COC(=O)c3ccccc3)C(OC(=O)c3ccccc3)C2OC(=O)c2ccccc2)c(=O)[nH]c1=O (stereo not given) | inactive
Cc1[nH]c2ccccc2c1CCC(N)=O | inactive
CNC(=O)C(=O)N/N=C/c1ccccn1 | inconclusive: 0.631 µM [inhibitor, full curve, poor fit]
CCC(CO)Oc1cc(NCc2cccc(F)c2)c2ncn(C(C)C)c2c1 (stereo not given) | inconclusive: 56.2 µM [inhibitor, partial curve]

SMILES | Potency
COc1ccc(-c2nsc(SCC(=O)Nc3cc(C)on3)n2)cc1 | inconclusive: 70.8 µM [inhibitor, single point]
CCC(C)NC(=O)c1c(N)n(/N=C/c2cccnc2)c2nc3ccccc3nc12 (stereo not given) | inactive
Cc1ccccc1OCCn1cnc2c(N)ncnc21 | inactive
CN(C)c1ccc(C2C3C(=O)NC(=O)C3ON2c2ccc(Cl)cc2)cc1 (stereo not given) | active: 56.2 µM
CC[C@@]1(c2ccccc2OC)C(=O)N(C(=O)OC)N1C(=O)OC | inactive
COCc1cc(=O)[nH]c(-c2ccc(C(F)(F)F)cc2)n1 | inconclusive: 22.4 µM [inhibitor, partial curve]
O=C(CCN1C(=O)/C(=C/c2ccc(Cl)cc2)SC1=S)Nc1cccc(C(=O)O)c1 | active: 50.1 µM
CC1CCN(c2ccc(C(=O)NCc3ccc4c(c3)OCO4)cc2[N+](=O)[O-])CC1 | inconclusive: 39.8 µM [inhibitor, single point]
CCOc1ccc(C(C)=O)cc1CSc1nnc(-c2cccs2)n1CC1CCCO1 (stereo not given) | inconclusive: 50.1 µM [inhibitor, partial curve]
O=C(C=Cc1ccco1)c1cc(Cl)ccc1O | active: 22.4 µM
CCc1ccc2[nH]c(=O)c(C(c3nnnn3CC3CCCO3)N3CCCc4ccccc43)cc2c1 (stereo not given) | inconclusive: 20 µM [inhibitor, full curve]
O=C(Cn1c(-c2cccs2)cc2ccccc21)NCCCN1CCN(c2ccc(F)cc2)CC1 | inconclusive: 15.8 µM [inhibitor, full curve]
Cc1cc(SCC(=O)OC/C(O)=C(\C#N)c2nc3ccccc3[nH]2)c(C)cc1Br | inactive
CN(C)c1ccc(C(=O)Nc2ccc(O)c3c(=O)cc(-c4ccccc4Cl)oc23)cc1 | inconclusive: 14.1 µM [inhibitor, full curve] and inconclusive: 39.8 µM [inhibitor, partial curve]
CCOCCCN(C)C1CCN(C(=O)c2oc3ccccc3c2NC(=O)Cc2ccc(F)cc2)CC1 | inconclusive: 31.6 µM [inhibitor, single point]
CCOc1ccc2nc(NC(=O)CN3CCOCC3)sc2c1 | inactive
Cc1ccc(Nc2c(-c3ccc(N4CCOCC4)cc3)nc3ncccn23)c(C)c1 | inconclusive: 56.2 µM [inhibitor, partial curve]
Cc1cc(N2C(=O)C3CCC(c4ccccc4)CC3C2=O)no1 (stereo not given) | inactive
Nc1c(C(=O)O)sc2nc(-c3ccccc3)c3c(c12)CCCC3 | inactive
COc1cccc2c1C(=O)c1ccc3ccccc3c1C2=O | inconclusive: 44.7 µM [inhibitor, partial curve, poor fit]
O=C(COC(=O)C1=NN(c2ccccc2)C(=O)CC1)Nc1nc(-c2ccc(F)cc2)cs1 | inconclusive: 79.4 µM [inhibitor, partial curve]
N#CC12C(N)=NC3(OCCO3)C1(C#N)C1=C(CCC1)NC2c1ccccc1 (stereo not given) | inactive
CCn1c(SCC(=O)Nc2nccs2)nnc1-c1ccccn1 | inconclusive: 35.5 µM [inhibitor, single point]
Cc1cccc2nc(-c3ccco3)c(Nc3ccccc3)n12 | inconclusive: 56.2 µM [inhibitor, partial curve]
CCC1CCCCN1CCCNC(=O)Cn1ncc2c(C)n(Cc3ccccc3Cl)c(C)c2c1=O (stereo not given) | inconclusive: 56.2 µM [inhibitor, partial curve]

SMILES | Potency
CCC(Oc1ccccc1)C(=O)OCC(=O)Nc1sccc1C(N)=O (stereo not given) | inactive
Cc1ccnc2c1ccc1cccnc12 | active: 5.62 µM
BrC(=C\c1ccccc1)/C=N/n1cnnc1 | inactive
Cc1ccc2c(c1)N(CC(=O)Nc1ncccc1C)C(=O)C(C(C)C)O2 (stereo not given) | inconclusive: 89.1 µM [inhibitor, single point]
CCOC(=O)CC(=O)c1[nH]c(C)c(C(=O)OCC)c1C | inactive
O=C(NCCCN1CCOCC1)c1ccc2ccccc2c1 | inactive
CN(C)S(=O)(=O)c1ccc(Cl)c(C(=O)Nc2ccc(S(=O)(=O)N3CCOCC3)cc2)c1 | inconclusive: 89.1 µM [inhibitor, single point]
CC(=O)N1CCN(C(=O)CSc2ncnc3sc(C)c(C)c23)CC1 | inactive
O=C(NN1CCOCC1)c1ccc(Cl)cc1[N+](=O)[O-] | inactive
O=C(C1=C(O)/C(=C/c2ccc(O)cc2)CCC1)C(F)(F)F | inactive
COCCN(C(=O)C(=O)NC1CCCC1)C(C(=O)NC1CCCC1)c1ccccc1F (stereo not given) | inactive
Cc1ccccc1C(=O)Nc1cc(C(F)(F)F)ccc1-n1cncn1 | inactive
Cc1cccc(/C=N/NC(=O)c2ccc(NC(=O)c3cccc(Cl)c3)cc2)n1 | inconclusive: 56.2 µM [inhibitor, partial curve]
COc1ccc(-c2csc(Cc3nnc4n3CCCCC4)n2)cc1OC | inconclusive: 79.4 µM [inhibitor, partial curve]
Cc1ccc(N(CC(=O)N/N=C/c2cc(C)n(-c3ccccc3C)c2C)S(C)(=O)=O)cc1 | inconclusive: 22.4 µM [inhibitor, full curve]
COc1ccc2[nH]c(N=Nc3ccccc3C)c(O)c2c1 | active: 44.7 µM
CCOC(=O)c1cc(S(=O)(=O)Nc2cc(C)c(Cl)cc2OC)[nH]n1 | inconclusive: 79.4 µM [inhibitor, partial curve]
CSc1ccc(CN2CCCN(C)CC2)cc1 | active: 12.6 µM
CCN(CCC(=O)O)c1ccccc1 | inconclusive: 89.1 µM [inhibitor, single point]
NNc1nc2ccccc2c(=O)n1Cc1ccccc1 | inconclusive: 89.1 µM [inhibitor, single point]
COc1ccc(NCc2cccn2-c2nnc(N3CCC(C)CC3)s2)c(OC)c1 | active: 28.2 µM
COCC(C)NC(=O)C1=CC(c2ccc3c(c2)OCO3)=NS(=O)(=O)N1C (stereo not given) | inactive
Cc1nc(NC(=O)c2ccccc2)sc1-c1csc(N)n1 | inconclusive: 56.2 µM [inhibitor, partial curve]
Cc1ccc(/C=C/C(=O)N2CC(C)CC(C)C2)o1 (stereo not given) | active: 50.1 µM
Cc1ccc(-c2cnc(SCC(=O)N3CCCc4ccccc43)n2C)cc1 | inconclusive: 35.5 µM [inhibitor, partial curve]
